Experimental data from the supplement of paper PMC11417369.
± gives the standard deviation of the averaged measurements. Some of the results follow.

The sequences below were run on PfAP2-EXP AP2 domain (GST-tagged) (assay: gcPBM binding intensity (ln(normalized median fluorescence intensity)); higher = stronger DNA binding).
Outline: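 An Agilent 4 × 180k array carrying primer-extended double-stranded 36-bp intergenic genomic probes and negative controls received GST-tagged P. falciparum DNA-binding domains expressed in E. coli, about 25 μg on average, for 1 h. The binding buffer contained 1× PBS, 1% milk, 0.2 mg/ml BSA, 0.5% salmon testes DNA and 0.03% Triton X-100. Binding intensity is the top Masliner-normalised natural-log median intensity across replicate spots of either probe orientation, read after Alexa488 anti-GST antibody staining and a 488 nm scan.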

| Sequence | gcPBM binding intensity (ln) |
| --- | --- |
| TATAAGAGAATATATACACACAAAAATATATACAGT [CACACA_site1668] | 8.82 ± 0.51 |
| TACACGCATGGACACACACACACACCCATATATATA [CACACA_site4522] | 8.74 ± 0.3 |
| TTCAAATATAAATACACACACATAGCTACAAAATAA [CACACA_site4172] | 8.95 ± 0.42 |
| TTTTTTTATCAATGTTGTACTTTTTTTTTTTTCCAT [XGTACX_site8864] | 8.61 ± 0.43 |
| TATATATTTTGTGTCTGTACACATATTATTAATTCC [XGTACX_site7507] | 8.59 ± 0.35 |
| TATCATATATAAAGAGGTACGTAAGAATAGAAAATT [XGTACX_site798] | 9.28 ± 0.57 |
| TAAATACATAAATACACACACATATATTATATATAT [CACACA_site4310] | 8.62 ± 0.14 |
| ATATTAACTATCATAACACACACAGTAGACATATTT [CACACA_site6941] | 8.67 ± 0.44 |
| TTCTTAAAAGGAAAGGTGCAACTTTATCATTTTCTT | 8.51 ± 0.18 |
| TAAAAAAAATATTTTTGTACGAATTAAATTTTTTTT [XGTACX_site4838] | 8.21 ± 0.3 |
| TATGAAATTTTAATTACACACAGGAAAATAAAATGG [CACACA_site4935] | 8.67 ± 0.41 |
| ACATATTTTTAATACACACTCAAAAAAGTACTTAAC [CACACA_site3014] | 8.54 ± 0.43 |
| AAAAAAAGTAAATGTTGTACTATAATATGTAATATA [XGTACX_site7966] | 8.48 ± 0.3 |
| AAATAACACTAATGATGTACTCAACTATTTATAATT [XGTACX_site8183] | 8.32 ± 0.38 |
| AACCACATACATATAACACACATATACAATCTATAT [CACACA_site1987] | 8.69 ± 0.37 |
| TACATATATATTATATGTACTTATATTTTTATAATA [XGTACX_site3452] | 8.14 ± 0.3 |
| ATATACATATCCATATTTATATCTATATTTAAAACA [CACACA_negctrl_site747] | 8.15 ± 0.4 |
| TAGAGGTATAAAATATGTACTTATAAAAACATGAAT [XGTACX_site8916] | 8.85 ± 0.37 |
| AGAGGTAGAGAGAAAACATGCATAATGATTTTCATA [TGCATGCA_site958] | 8.46 ± 0.53 |

| Sequence | gcPBM binding intensity (ln) |
| --- | --- |
| TTTTCCAATTTAAAAGCATGCATCTGTTTTTTTTTT [TGCATGCA_site482] | 9.02 ± 0.57 |
| AAATTATTAAGTGATATAATATTCTATAGATGGGGA [CACACA_negctrl_site168] | 8.46 ± 0.43 |
| TATATGATATAATATACACACATACAGATATATATA [CACACA_site4440] | 8.46 ± 0.33 |
| TATTTACACCTAATCACAAATAAAATAAAATCAAAT [CACACA_negctrl_site531] | 8.59 ± 0.51 |
| TTTTTATAACTATATTATATAACTTTTGTACGAACT [CACACA_negctrl_site1423] | 8.23 ± 0.18 |
| ACATATAAATAAATAAATATATATATATATATATAT [GTGCAC_negctrl_site378] | 10.1 ± 0.42 |
| TAAATCAAAATAATTTAACACACAATTTTAATACTG [CACACA_site8744] | 8.14 ± 0.3 |
| GATAAGGTATTCAAATGTACAAAATGTTTTATATAA [XGTACX_site6863] | 8.39 ± 0.43 |
| ACTTATACAAAATGTGCATGTTATATTTACAATAAT [TGCATGCA_site108] | 8.79 ± 0.29 |
| AAATTAAATGTAAGCACACATAAATTATACTCATAT [CACACA_site5782] | 8.36 ± 0.33 |
| GGAATAGTAATATATACACACAAATACATATATATA [CACACA_site67] | 8.74 ± 0.2 |
| TTTATTTTTTAATGATGTACTATTTATCCAGAAAAG [XGTACX_site7750] | 8.43 ± 0.27 |
| ATAAGCTCATGCAGGTGTACACAAAAAGAAAAAAAA [XGTACX_site2433] | 9.15 ± 0.35 |
| ATAATGAAAAGGAACATACACACCCCATATAAATAT [CACACA_site3442] | 9.4 ± 0.83 |
| AAAAAATTCAAAAGGTGTACAACATTATATTATTCC [XGTACX_site5118] | 8.53 ± 0.3 |
| TATTGTTTTTTTTACTGTACACAAGTAAATGAAAAA [XGTACX_site790] | 8.37 ± 0.35 |
| TCTGTATATTATTCAAGTACACAATATAAATATAAA [XGTACX_site7241] | 8.41 ± 0.22 |
| GAACAAATTAAATAGGTGCATTAACATGTTCTATTT [GTGCAC_site9729] | 8.76 ± 0.092 |
| AAAAATAAAAAAATAAATACGTATACATATATAATA [TGCATGCA_negctrl_site551] | 8.52 ± 0.32 |

| Sequence | gcPBM binding intensity (ln) |
| --- | --- |
| GATAACTTTTTTCTCACACACAAATATTTTAATCAT [CACACA_site7685] | 8.71 ± 0.39 |
| GTATATAATTAAAGTTGTACCCTTAAAAAAGGGAAA [XGTACX_site7278] | 8.41 ± 0.19 |
| AAAATGAAAATGAAAATGAAAATGGGAAAATGTCAA [TGCATGCA_negctrl_site488] | 8.95 ± 0.56 |
| TATAATTATATGTATACACACACATACATTTACATA [CACACA_site9061] | 8.92 ± 0.27 |
| CATATATATCGTAATGCACACATGTAATTTCATAAT [CACACA_site811] | 8.85 ± 0.17 |
| TAAATAAAAAAGAATACACACAGCATGCATAAATAT [CACACA_site237] | 9.6 ± 0.53 |
| TTATATATAAGTTTATTCATTTTTTTTTTTTTTTTT [XGTACX_negctrl_site573] | 8.44 ± 0.18 |
| TAACACCAAACTAAATGTACACACATACATAAATAT [XGTACX_site2201] | 8.72 ± 0.59 |
| TCTTATATGATATTTATTTATTTATTTATTTATTCA [GTGCAC_negctrl_site686] | 8.39 ± 0.28 |
| AATGAATAATTATTTTGTACATAATATTATATTTAT [XGTACX_site5350] | 8.34 ± 0.36 |
| TTTATTTTTTGTGGCACACAGAAGAAACAAGAACAA [CACACA_site1696] | 9.12 ± 0.35 |
| TAAATGTGAACAATAGAAGTAATAAGAAGAATAAAA [CACACA_negctrl_site1080] | 8.94 ± 0.39 |
| AATAGTAATTTGAATACACACAATAATATATTTATA [CACACA_site7055] | 8.41 ± 0.31 |
| CAACTAATATTAAAACGTACATAAATATTTAACAGA [XGTACX_site625] | 8.71 ± 0.35 |
| ATCACATATATATATAATATATATATGTATATATTT [GTGCAC_negctrl_site249] | 8.18 ± 0.5 |
| AAAAAAAATATATATGCACACACAAAAAAACAAATT [CACACA_site8349] | 8.79 ± 0.33 |
| ATATATATATATATATGTACATATATTTTTATTTAT [XGTACX_site3508] | 10.3 ± 0.26 |
| TTGTAATAAAGAATTAAAAAAAAATATATACAGGTA [GTGCAC_negctrl_site150] | 8.44 ± 0.41 |
